In all, about 360,000 compounds went through this assay and about 2,600 (0.72%) were called active. Inconclusive results, whose numbers are uncertain, are shown with a selection of clear calls. Calls come from the whole dose curve; as a rule, active = well fitted inhibition curve with a large enough effect; inconclusive = small, poorly fitted or top-dose-only effect; inactive = no such curve, though single readings can be large or run the other way. Potencies beside an inconclusive call are fits to weak or partial responses and may not hold up.
Assay: Primary qHTS for Inhibitors of ATXN expression; note: nearly all actives have a fitted effect of over 55% in size
Details: HEK-293 ATXN2-luciferase reporter, luminescence, 24 h; activity change, negative = inhibition: at 57 µM (top of the series)
Summary of the method: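 ATXN2-luciferase reporter cells (luciferase flanked by upstream and downstream ATXN2 gene portions) were treated 24 h at 37 °C with compounds at up to 57 uM. SteadyGlo luminescence gave expression; GF-AFC fluorescence gave viability.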
In the case of `COC(=O)COc1ccc(S(=O)(=O)N2CCCCCC2)cc1`, the “activity change, negative = inhibition” value is reported as inactive: -2.74%.
For `CC1CCN(Cc2nnnn2CCCC(=O)N(C)C2CCOC2)CC1` (configuration not stated), the “activity change, negative = inhibition” value was inactive: -1.38%.
With `COc1ccc(OC)c(Nc2nc(NCc3ccco3)c3ccccc3n2)c1` the Potency was active: 31.6 µM.
With `O=C(NCc1ccccc1)c1nc[nH]c1C(=O)N1CCN(c2ccccc2)CC1` the “activity change, negative = inhibition” value was inactive: 12.8%.
For `Cc1ccc(Cl)cc1NC(=O)CC(O)(C(F)(F)F)C(F)(F)F`, the Potency was inconclusive: 31.6 µM [inhibitor, single point].
In the case of `O=C(Nc1ccc(Cc2nc3ccccc3s2)cc1)c1ccncc1`, the activity change, negative = inhibition is reported as inconclusive: -44% [inhibitor].
With `COc1cc2c(cc1OC)C(SC)=NC(C)(C)C2` the Potency was inconclusive: 25.1 µM [inhibitor, single point].
With `O=C(/C=C/c1ccco1)c1ccc(NC(=O)C23CC4CC(CC(C4)C2)C3)cc1` the “activity change, negative = inhibition” value was inactive: -5.32%.
For `CCOc1ncccc1C(=O)Nc1ccc(F)cc1`, the Potency was inconclusive: 1.06 µM [inhibitor, partial curve, poor fit].
For `O=C(Nc1ccccc1)Nc1cc(Cl)cc(Cl)c1`, the Potency was inconclusive: 39.8 µM [inhibitor, single point].
For `CC(=O)N1CCCc2cc(S(=O)(=O)N(C)CC(=O)Nc3cccc(C)c3C)ccc21`, the “activity change, negative = inhibition” value was inactive: -13.3%.
With `O=C1c2[nH]nc(-c3ccccc3O)c2C(c2cccc(Cl)c2)N1Cc1cccnc1` (configuration not stated) the Potency was inconclusive: 39.8 µM [inhibitor, single point].
For `COc1ccccc1OCCNC(=O)c1cccc(S(=O)(=O)NCc2ccccc2)c1`, the Potency was inconclusive: 0.794 µM [inhibitor, full curve, poor fit].
With `CC(C)Oc1ccc(C(CCN)C2CCCCC2)cc1` (configuration not stated) the activity change, negative = inhibition was inconclusive: -97.5% [inhibitor].
With `CNS(=O)(=O)c1ccc2c3c(cccc13)C(=O)N2C` the “activity change, negative = inhibition” value was inactive: 11.2%.
With `CC(C)C(=O)N1CCN(c2ccc(NC(=O)c3ccc4c(c3)OCCO4)cc2Cl)CC1` the Potency was inconclusive: 22.4 µM [inhibitor, single point].
In the case of `COc1ccc(OC)c(NS(=O)(=O)c2ccc3[nH]c4c(c3c2)CCCCC4)c1`, the Potency is reported as inconclusive: 39.8 µM [inhibitor, single point].
For `CCCCN1CC(c2nc3ccccc3n2CCCCOc2ccc(C)c(C)c2)CC1=O` (configuration not stated), the Potency was inconclusive: 22.4 µM [inhibitor, single point].
With `Oc1c(N=Nc2ccccn2)ccc2ccccc12` the Potency was active: 7.94 µM.
With `Oc1ccc(Nc2nc3ccccc3nc2Nc2ccc(O)cc2)cc1` the Potency was inconclusive: 39.8 µM [inhibitor, single point].
For `CC(C)Cc1nc2oc3c(Cl)ncnc3c2c2c1CCCC2`, the Potency was active: 31.6 µM.
For `Cc1c(NC(=O)c2ccc([N+](=O)[O-])o2)cccc1-c1nc2ncccc2o1`, the Potency was inconclusive: 39.8 µM [inhibitor, single point].
For `Cc1nnc(NC(=O)CCS(=O)(=O)c2ccccc2)s1`, the “activity change, negative = inhibition” value was inactive: 46.5%.
With `O=C(NC(NC(=S)Nc1ccc(Cl)cc1Cl)C(Cl)(Cl)Cl)c1cccc([N+](=O)[O-])c1` (configuration not stated) the Potency was inconclusive: 25.1 µM [inhibitor, single point].
For `COc1ccc(CC(=O)Nc2cccc(-c3ccc4nncn4n3)c2)cc1OC`, the Potency was inconclusive: 20 µM [inhibitor, partial curve, poor fit].
In the case of `O=c1[nH][nH]c(-c2ccccc2O)c1C(C[N+](=O)[O-])c1ccc(Br)cc1` (configuration not stated), the Potency is reported as inconclusive: 39.8 µM [inhibitor, single point].
For `Cc1ccc(S(=O)(=O)N2CCC(=O)N(C(COCc3cccc(C(F)(F)F)c3)C(C)C)CC2)cc1` (configuration not stated), the Potency was inconclusive: 28.2 µM [inhibitor, partial curve, poor fit].
With `CC(NC(=O)Nc1ccc(Cl)c(Cl)c1)C(c1ccccc1)N1CCOCC1` (configuration not stated) the Potency was inconclusive: 31.6 µM [inhibitor, single point].
For `CCOC(=O)c1c(C)oc2ccc(N(C(=O)c3ccncc3)S(=O)(=O)c3ccc(Br)cc3)cc12`, the Potency was inconclusive: 39.8 µM [inhibitor, single point].
In the case of `N#CC1=C(N)NC(=S)C(C(N)=O)C1c1ccc(Cl)cc1Cl` (configuration not stated), the Potency is reported as inconclusive: 16.8 µM [inhibitor, partial curve, poor fit].
With `Cc1cccc(N=C2NC(=O)/C(=C/c3cn(C)c4ccccc34)S2)c1` the Potency was inconclusive: 31.6 µM [inhibitor, single point].
For `O=C(N/N=C/c1cc(Br)ccc1OC(=O)c1ccc(Br)cc1)c1ccncc1`, the Potency was inconclusive: 3.55 µM [inhibitor, full curve, poor fit].
For `CCOC(=O)c1ccc(N2C(=O)c3n[nH]c(-c4ccco4)c3C2c2ccc(O)c(OC)c2)cc1` (configuration not stated), the Potency was inconclusive: 31.6 µM [inhibitor, single point].
In the case of `O=C(Cn1c2c(sc1=O)C1c3ccccc3OCC1CS2)Nc1ccc(Cl)c(Cl)c1` (configuration not stated), the Potency is reported as inconclusive: 3.16 µM [inhibitor, full curve, poor fit].
With `Nc1c(Cl)cc(-c2csc(NCCc3nc4cc(Cl)c(Cl)cc4n3CCCO)n2)cc1Cl` the “activity change, negative = inhibition” value was inactive: -19.8%.
In the case of `Cc1ccc(CCn2c3c(c4cc(Cl)ccc42)CN(C)CC3)cn1`, the Potency is reported as inconclusive: 35.5 µM [inhibitor, single point].
For `Cc1csc(NC(=O)c2ccc(OCC3CCCO3)cc2)n1` (configuration not stated), the Potency was inconclusive: 13.4 µM [inhibitor, single point].
With `Cc1ccc(N)cc1O` the Potency was inconclusive: 50.1 µM [inhibitor, partial curve, poor fit].
In the case of `COc1ccc(C(NCC(=O)NC(C)c2ccc(Cl)cc2)c2ccccc2)cc1` (configuration not stated), the Potency is reported as inconclusive: 28.2 µM [inhibitor, partial curve, poor fit].
In the case of `O=[N+]([O-])c1ccc(N2CCN(Cc3cccc([N+](=O)[O-])c3)CC2)cc1`, the Potency is reported as inconclusive: 14.1 µM [inhibitor, partial curve].
With `CNC(CC(=O)c1ccc([N+](=O)[O-])cc1)C(Cl)(Cl)Cl` (configuration not stated) the Potency was active: 25.1 µM.
For `C[C@H]1[C@H](O)O[C@@H]2O[C@@]3(C)CC[C@@H]4[C@H](C)CC[C@@H]1[C@@]24OO3`, the Potency was inconclusive: 3.43 µM [inhibitor, full curve].

— PubChem BioAssay AID1745845 (National Center for Advancing Translational Sciences (NCATS), 2022)
% is set by controls: 0 for no effect and ±100 for the full control effect; potency is the fitted concentration of half-maximal effect; tags give direction and shape of the fitted curve.
